No constants are given. Whether binding was seen depends on the method and setting. In cells and extracts the contact can be indirect. Some entries that bind do so weakly or less than the wild type.
What was measured:
[1] = target: protein kinase C epsilon (human (endogenous in MCF-10A)) (UniProt Q02156); assay: co-IP; immunoprecipitation with anti-PKC isozyme antibodies on Agarose A/G Plus beads from cytoplasmic extracts of TGF-β-treated (5 ng/ml, 72 h) MCF-10A cells; 1 mg lysate, overnight at 4 °C; immunoblot for CELF1
[2] = target: protein kinase C alpha (human (endogenous in MCF-10A)) (UniProt P17252); assay: as above
[3] = target: PKC delta (human (endogenous in MCF-10A)) (UniProt Q05655); assay: as above
[4] = target: protein kinase C epsilon (human (endogenous in MCF-10A)) (UniProt Q02156); assay: co-IP; immunoprecipitation with anti-PKC isozyme antibodies on Agarose A/G Plus beads from extracts of untreated (no TGF-β, epithelial) MCF-10A cells; 1 mg lysate, overnight at 4 °C; immunoblot for CELF1
[5] = target: protein kinase C alpha (human (endogenous in MCF-10A)) (UniProt P17252); assay: as above
[6] = target: PKC delta (human (endogenous in MCF-10A)) (UniProt Q05655); assay: as above
[7] = target: CELF1 (CUGBP and eELAV-like family member 1) RNA-binding protein (human (endogenous in MCF-10A)) (UniProt Q92879); assay: co-IP; reverse: immunoprecipitation with anti-CELF1 antibody from cytoplasmic extracts of TGF-β-treated (5 ng/ml, 72 h) MCF-10A cells; immunoblot for the PKC isozymes

The chains behind the UniProt entries cited, without tags or fusion partners.
UniProt Q02156: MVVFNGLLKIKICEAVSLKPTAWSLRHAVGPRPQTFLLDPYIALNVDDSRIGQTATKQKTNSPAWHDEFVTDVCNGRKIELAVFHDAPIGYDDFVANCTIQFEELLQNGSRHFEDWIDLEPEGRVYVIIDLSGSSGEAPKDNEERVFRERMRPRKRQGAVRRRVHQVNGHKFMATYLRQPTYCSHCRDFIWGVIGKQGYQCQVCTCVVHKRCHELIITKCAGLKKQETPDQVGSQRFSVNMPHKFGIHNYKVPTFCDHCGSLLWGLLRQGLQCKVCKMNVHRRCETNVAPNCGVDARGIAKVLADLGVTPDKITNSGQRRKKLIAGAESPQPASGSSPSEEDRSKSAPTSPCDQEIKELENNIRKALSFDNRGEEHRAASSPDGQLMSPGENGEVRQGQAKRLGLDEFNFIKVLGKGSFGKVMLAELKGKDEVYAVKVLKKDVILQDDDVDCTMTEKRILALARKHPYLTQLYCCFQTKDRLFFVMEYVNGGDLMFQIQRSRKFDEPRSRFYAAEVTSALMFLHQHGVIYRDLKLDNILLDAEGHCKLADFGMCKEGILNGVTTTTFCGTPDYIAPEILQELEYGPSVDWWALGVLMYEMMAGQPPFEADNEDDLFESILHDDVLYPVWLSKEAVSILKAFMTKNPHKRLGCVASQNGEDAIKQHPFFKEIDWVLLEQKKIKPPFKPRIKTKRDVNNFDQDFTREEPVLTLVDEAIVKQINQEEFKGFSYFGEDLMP
UniProt Q05655: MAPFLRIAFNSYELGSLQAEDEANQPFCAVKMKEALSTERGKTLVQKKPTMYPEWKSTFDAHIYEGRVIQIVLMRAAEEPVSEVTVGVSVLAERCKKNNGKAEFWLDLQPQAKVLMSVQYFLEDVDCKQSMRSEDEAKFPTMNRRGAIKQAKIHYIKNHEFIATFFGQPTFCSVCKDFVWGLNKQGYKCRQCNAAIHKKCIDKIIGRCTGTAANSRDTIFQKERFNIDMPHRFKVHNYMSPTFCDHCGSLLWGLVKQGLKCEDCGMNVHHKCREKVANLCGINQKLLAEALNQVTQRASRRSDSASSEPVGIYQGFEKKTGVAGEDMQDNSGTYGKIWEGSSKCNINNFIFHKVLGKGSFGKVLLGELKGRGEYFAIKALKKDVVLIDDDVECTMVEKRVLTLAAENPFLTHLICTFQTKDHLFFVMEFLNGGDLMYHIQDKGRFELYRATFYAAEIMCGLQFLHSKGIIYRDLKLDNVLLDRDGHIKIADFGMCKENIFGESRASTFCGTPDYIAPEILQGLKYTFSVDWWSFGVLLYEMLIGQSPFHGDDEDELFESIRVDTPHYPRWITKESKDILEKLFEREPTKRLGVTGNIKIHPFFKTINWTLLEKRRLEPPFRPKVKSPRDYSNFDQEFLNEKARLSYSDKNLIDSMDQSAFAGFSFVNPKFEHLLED
UniProt Q92879: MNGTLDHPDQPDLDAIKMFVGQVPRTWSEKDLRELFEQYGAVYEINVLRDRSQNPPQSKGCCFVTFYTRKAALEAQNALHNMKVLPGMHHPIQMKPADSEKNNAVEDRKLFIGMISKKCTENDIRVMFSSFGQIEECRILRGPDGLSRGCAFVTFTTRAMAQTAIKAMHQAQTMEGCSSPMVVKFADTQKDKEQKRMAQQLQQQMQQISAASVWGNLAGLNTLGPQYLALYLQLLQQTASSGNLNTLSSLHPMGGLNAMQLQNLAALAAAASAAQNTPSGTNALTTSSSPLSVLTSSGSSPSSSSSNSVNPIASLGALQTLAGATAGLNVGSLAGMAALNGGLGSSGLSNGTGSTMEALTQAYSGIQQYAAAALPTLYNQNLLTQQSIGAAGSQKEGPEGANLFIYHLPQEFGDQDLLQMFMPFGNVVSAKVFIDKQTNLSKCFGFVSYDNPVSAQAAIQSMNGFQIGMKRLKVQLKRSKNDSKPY

binding [1] | binding [2] | binding [3] | binding [6] | binding [7] | Substance | binding [4] | binding [5]
binds | binds | no binding | no binding | – | CELF1 (CUGBP and eELAV-like family member 1) RNA-binding protein (from UniProt Q92879 1-486) | no binding (condition: untreated MCF-10A cells (no TGF-β)) | no binding (condition: untreated MCF-10A cells (no TGF-β))
– | – | – | – | binds | protein kinase C alpha (from UniProt P17252 1-672) (enzyme) | – | –
– | – | – | – | binds | protein kinase C epsilon (from UniProt Q02156 1-737) (enzyme) | – | –
